Measured values published in the supplement of paper PMC3724861.
The list shows a part of the results.

These sequences were tested on T1, Caupolican (Caup) homeodomain DNA-binding domain (assay: PBM E-score (8-mer, recovered from the published 9-mer minima) (E-score (dimensionless, -0.5 to 0.5)); Drosophila protein; higher = stronger relative binding preference, active = 0.31 or more).
T1 sequence: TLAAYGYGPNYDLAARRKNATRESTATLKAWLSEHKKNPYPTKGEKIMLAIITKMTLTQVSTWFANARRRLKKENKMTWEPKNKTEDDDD
How it was run: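 Caup's homeodomain DNA-binding domain (residues 214-303) was made by in vitro transcription and translation and applied at 100 nM to custom-designed protein binding microarrays. Each value is an enrichment score that gives relative binding preference for a short DNA word, with higher meaning stronger. The 8-mer values were recovered from published 9-mer scores, each of which was the minimum of its two constituent 8-mer scores. A cutoff of 0.31 marks candidate sites.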

Row | Sequence | PBM E-score
1 | GCGCAGCA | inactive: -0.249
2 | CCAGTAAG | inactive: 0.0272
3 | ATGACTAC | inactive: 0.105
4 | CTAAGCGA | inactive: -0.115
5 | CCCGAAGG | inactive: -0.208
6 | AAGTGCGA | inactive: -0.145
7 | CCGCCTTC | inactive: -0.262
8 | GCGTTTAA | inactive: 0.083
9 | TGCTAGCA | ≥ 0.0581
10 | GCACACTA | inactive: 0.0238
11 | CGCTTCTA | inactive: -0.0139
12 | AGTTAAAG | inactive: 0.0212
13 | CCACTGTC | inactive: -0.102
14 | CCTTCCTA | inactive: -0.139
15 | ACCATCTG | inactive: -0.0289
16 | CCAGGAAA | inactive: -0.0138
17 | AGAACGCG | inactive: -0.0353
18 | CGCGCGAA | inactive: -0.0533
19 | AAGCGAAA | inactive: -0.0906
20 | AACGAAGT | inactive: 0.0539
21 | ACATTCCG | inactive: 0.109
22 | GACGGCGA | inactive: -0.228
23 | AATTAAAG | inactive: -0.0157
24 | AGTCTATA | inactive: 0.0467

Row | Sequence | PBM E-score
25 | CAGGGCTA | inactive: -0.125
26 | CTCAGCAA | inactive: 0.0502
27 | AACACATG | active: 0.313
28 | ATGATGAC | inactive: 0.0907
29 | AATCAAAG | inactive: -0.0389
30 | ACCGTGGC | inactive: -0.0957
31 | ATTACATA | active: ≥ 0.385
32 | AGATTACT | inactive: 0.108
33 | CTAAACTC | inactive: -0.0416
34 | TCATTACA | inactive: 0.291
35 | CTTTCTAC | inactive: 0.0118
36 | CAGTGCGG | inactive: -0.227
37 | CACTCAAA | inactive: 0.0936
38 | CGGGCAGA | inactive: -0.0885
39 | AGAAGACG | inactive: -0.0252
40 | GAACAACA | inactive: 0.292
41 | AACGTGTA | active: 0.371
42 | AAAGACGG | inactive: -0.139
43 | TGAATGAA | inactive: 0.0539
44 | CGACTTTA | inactive: 0.0125
45 | ATATCAGC | inactive: 0.112
46 | GGGCAATA | inactive: -0.0408
47 | AGATACCT | inactive: 0.0373
48 | CTAGAAAG | inactive: -0.00765

Row | Sequence | PBM E-score
49 | GCGGTGTA | inactive: 0.234
50 | ACTTGGCC | inactive: -0.142
51 | GGTCTTAC | inactive: 0.013
52 | CAGGTTCC | inactive: -0.0686
53 | AGCTCAGA | inactive: -0.0611
54 | ATTGAGGC | inactive: -0.183
55 | CATGGTTC | inactive: 0.0641
56 | CTTGTGAC | inactive: 0.0863
57 | ATGGACCG | inactive: -0.0785
58 | CCATACCA | inactive: 0.0311
59 | ACGCACCT | inactive: -0.0993
60 | AATATGGA | ≥ 0.154
61 | CACCCCGC | inactive: -0.205
62 | ATACAGCC | inactive: 0.0406
63 | GAGGAACC | inactive: -0.0599
64 | AGTGTGTG | inactive: 0.139
65 | CATCAATC | inactive: 0.122
66 | CCGCTTGC | inactive: -0.195
67 | AACTGGAA | inactive: -0.00787
68 | CGCCTTCA | inactive: -0.176
69 | AGCGCGAT | ≥ -0.033
70 | ATTGTGGG | inactive: -0.0571
71 | GCAGTCCA | inactive: -0.0454
